The test system of one data set is HUVEC. Description: Tube formation by HUVEC in collagen gel. In kind it is cell-based, human. Here is the method: Human Umbilical vein endothelial cells (HUVEC) were obtained by treating fresh human umbilical cord veins with Trypsin-EDTA (1×) (Gibco/Invitrogen) for 20-25 minutes at 37° C. The cells were cultured in a T-25 flask coated with attachment factor (AF), (Cascade Biologics) in RPMI 1640 medium supplemented with 10% FCS, 0.4% BBE, 1% 1-glutamin, 1% penicillin/streptomycin. Primary cultures were detached with warm Trypsin-EDTA and used when confluent at the second or third passage. The cells were maintained in a proliferative state by culturing them in a split ratio 1:2 at an approximate density of the monolayer of about 60-80%. To dissociate the cells, HUVEC monolayers were treated with trypsin/EDTA (500 μl/dish) at 37° C. for 3 min. Trypsin activity was stopped by adding 3 volumes of complete RPMI medium. The cells were carefully scraped, separated by repeated pipetting, and finally washed with PBS.
After 2 passages HUVECs were seeded in their culture medium (40×10^3/50 μl/well of a 96-well plate) on a collagen gel (50 μl of collagen I 1.5 mg/ml) prepared by mixing 7.5 volumes of 2 mg/ml collagen (Collagen R; Serva, Heidelberg, Germany), 1 volume of 10× MEM, 1.5 volume of NaHCO3 (15.6 mg/ml) and ˜1 volume of NaOH to adjust the pH to 7.4. […] The assay was performed with a streptavidin antibody used as a control (from 1 ng/ml to 10 μg/ml): The total length of the tube network on the culture surface was quantified at 40× magnification by the METAVUE™ Software (Universal Imaging Corporation). Results from triplicate wells were expressed as mean vessel area per field ±SEM (relative units). […]
Germlined E3 (DX-2220) and its parental antibody (DX-2200) were evaluated in the tube formation assay in a collagen type-I matrix. […] The total length of the tube network on the culture surface was quantified at 40× magnification by the METAVUE™ Software (Universal Imaging Corporation). Results from triplicate wells were expressed as mean vessel area per field ±SEM (relative units). […]

For data set [1], the system named is CD45+ CD34+ blood progenitor cells. As to the kind of experiment: FACS analysis on blood progenitor cells. Type of data set: binding. The settings on record: G-CSF mobilized peripheral blood cells and bone marrow cells; biotinylated antibody. Here is the method:
To evaluate the binding characteristics to blood progenitor cells (stem cells), FACS analysis with the anti-Tie1 antibody (or the appropriate negative control antibody) on G-CSF mobilized peripheral blood cells and with bone marrow cells was performed. Briefly, cells were blocked with 10% heat-inactivated human AB serum/2% mouse serum. Binding was initiated with biotinylated DX-2220 or biotinylated A2 negative control antibody. After washing the cells, primary antibodies were detected using FITC-labeled streptavidin. Following an additional 30 minute incubation period, remaining erythrocytes were lysed, and the resulting cell pellet after centrifugation was resuspended in PBS prior to FACS analysis. Data acquisition was performed on a FACSCanto™ (Becton-Dickinson) using FacsDiva™ software. Active gating on SSC/CD45 was used. Progenitor cells were gated on CD45^+ CD34^+ cells and were acquired automatically with at least 100,000 CD45^+ CD34^+ counted.

The subject of data set [2] is LLC (mouse lung carcinoma). Description: LLC tumor model in mice. In kind it is in vivo. The settings on record: day 14 after start of treatment. Here is the method:
In addition to the in vivo studies presented above, four additional mouse xenografts studies were performed. These studies were conducted either according to the protocols used in the SW-480 or LNM35 study.
The anti-Tie1 antibody was also evaluated for its effect on implanted tumors. Tumor cells were injected subcutaneously into the abdominal region of mice (Balb/C nu/nu female mice, 5-6 weeks old). The following tumor cells were tested: a lung carcinoma (mouse syngeneic Lewis lung carcinoma (LLC)); human lung carcinoma LNM35; an aggressive human colon carcinoma clone (SW480R). Treatments with anti-Tie1 antibody were initiated 4-6 days post-implantation. The anti-Tie1 antibodies or a control antibody (the A2 anti-streptavidin antibody) were administered intraperitoneally at 20 mg/kg every second day. Tumor volume was measured every second day and calculated as 0.5×height×width×depth.

For data set [3], the system named is human myeloid and erythroid progenitors and megakaryocyte progenitors. As to the kind of experiment: In vitro colony assays of hematopoietic progenitors. Type of data set: cell-based. The conditions noted are these: methylcellulose- and collagen-based assays; concentrations up to 100 μg/ml. Here is the method:
The effect of anti-Tie1 antibodies (DX-2220 and DX-2240) on human myeloid and erythroid progenitors was evaluated using methylcellulose-based in vitro colony assays and megakaryocyte progenitors using collagen-based in vitro assays.

B1: DX-2220: full length, IgG1, germlined human anti-Tie1 antibody E3b; LC SEQ ID NO:700, HC SEQ ID NO:701 (antibody)
heavy: EVQLLESGGGLVQPGGSLRLSCAASGFTFSMYGMVWVRQAPGKGLEWVSVISPSGGNTGYADSVKGRFTISRDNSKNTLYLQMNSLRAEDTAVYYCARAPRGYSYGYYYWGQGTLVTVSS[left out - human IgG1 constant region]
light: DIQMTQSPSSLSASVGDRVTITCRASQGIGHYLAWYQQKPGKVPKLLIYTASTLQSGVPSRFSGSGSGTDFTLTISSLQPEDVATYYCQQFNSYPHTFGQGTRLEIKRTVAAPSVFIFPPSDEQLKSGTASVVCLLNNFYPREAKVQWKVDNALQSGNSQESVTEQDSKDSTYSLSSTLTLSKADYEKHKVYACEVTHQGLSSPVTKSFNRGEC
modifications: Antibody
As for B1, in the data set with HUVEC (HUVEC, collagen type-I matrix, 0.1 ng/ml to 100 ng/ml tested), the “IC50, tube formation” value was “less than 10 ng/ml”. The same molecule yielded an IC50 in the data set with HUVEC (HUVEC, conversion of 10 ng/ml) of less than 66 pM. Besides, the “inhibition of tube formation by HUVECs” value in the data set with HUVEC (collagen type-I gel) was “inhibits tube formation”. Besides, the “staining of CD45+ CD34+ blood progenitor cells” value in data set [1] is “neither the negative control IgG A02, nor the E3 anti-Tie1 antibody DX-2220, positively stained CD45^+ CD34^+ blood progenitor cells”. The “inhibition of tumor progression” value in data set [2] turned out to be 20% inhibition @ day 14. For the same molecule, the “inhibition of colony formation” value in data set [3] is “Neither DX-2220 nor DX-2240 inhibited colony formation”.

Broadly, the IC50 is the point on the concentration scale where inhibition reaches its midpoint. Lower therefore signals higher potency.

The values above are taken from patent publication US20100196361A1, “Method of inhibition of vascular development using an antibody” (DYAX CORP., priority 2003, published 2010).
